This experiment has as its target HaPARP (Herpetosiphon aurantiacus, UniProt A9B244). The experiment in a line: Thermal stability assay (Sypro Orange melting curves). The experiment is classed as binding. The conditions noted are these: read-out: Tm increase (ΔTm) of HaPARP.

Regarding `NC(=O)c1cccc(N)c1` [3-aminobenzamide], the ΔTm at 1000 µM was 7 °C.

A word on the ΔTm: it is the shift of the melting midpoint relative to a reference.

Values taken from PMC5966428, “Comparative inhibitory profile and distribution of bacterial PARPs, using Clostridioides difficile CD160 PARP as a model” (Scientific Reports, 2018).
